Source: the BET-seq Pho4 binding data (Le et al. 2018)
Some of the results follow. Values were computed here from the reads of four pooled replicates and scatter widely.

target: T1, Pho4 (S. cerevisiae) (UniProt P07270); assay: relative binding free energy (BET-seq); higher = weaker binding; conditions: reference: library average
T1 sequence: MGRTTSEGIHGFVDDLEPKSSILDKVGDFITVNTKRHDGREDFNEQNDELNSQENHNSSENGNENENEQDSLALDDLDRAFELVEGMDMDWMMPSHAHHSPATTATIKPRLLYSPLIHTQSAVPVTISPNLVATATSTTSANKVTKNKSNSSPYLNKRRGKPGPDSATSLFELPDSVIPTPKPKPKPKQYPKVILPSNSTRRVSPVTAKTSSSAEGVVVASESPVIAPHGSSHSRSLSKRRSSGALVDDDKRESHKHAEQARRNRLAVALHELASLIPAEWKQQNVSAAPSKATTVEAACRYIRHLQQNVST

Sequence | relative binding free energy [kcal/mol]
TGACTCACGTGGGTTG | 0.13
CTTTGCACGTGATGGG | 0.04
TGGGTCACGTGTAAAC | 0.44
TATGGCACGTGCTGTA | -0.17
GTTGGCACGTGGATGC | -0.09
GCGTGCACGTGGTATT | 0.02
TTGTACACGTGTGTGC | 0.19
TTTCTCACGTGGATAG | 0.24
GAGGTCACGTGTGGTA | 0.31
CTGTTCACGTGTCATG | 0.28
CTTTTCACGTGTTAGA | 0.27
TAGGGCACGTGGATTA | -0.07
GATTGCACGTGTTAAG | -0.09
GGGTGCACGTGGGCAG | -0.15
ATTTTCACGTGATGTG | 0.29
CGTGTCACGTGTGGGC | 0.15
CGTTTCACGTGTGGCC | 0.48
TTGTGCACGTGATGGC | 0.13
AGGGTCACGTGTCGTG | 0.1
ATACTCACGTGGGGTT | 0.01
ATACGCACGTGAGGGA | 0.15
TCCATCACGTGGTTGT | 0.17
AGAGACACGTGGGGCT | -0.16
CAGGTCACGTGGCGTT | -0.02
GGGCTCACGTGTGATG | 0.33
GTGTCCACGTGGAGTT | 0.17

Sequence | relative binding free energy [kcal/mol]
TAATTCACGTGTGCTG | 0.2
TGAGTCACGTGTGTCA | 0.24
TGTCGCACGTGTGAAG | -0.02
AGCGTCACGTGCTGGT | 0.03
TTGAGCACGTGAGCGT | 0.11
AGTGTCACGTGTGTAC | 0.06
AGTCGCACGTGTTAGG | -0.07
TTGTACACGTGTACGT | 0.14
GGATTCACGTGCATTT | 0.28
TGCTTCACGTGGAGGA | 0.25
CTTGGCACGTGTAGGT | 0.02
GGGGACACGTGCGGAT | 0.01
CAGGGCACGTGCTTGT | -0.19
GAGGACACGTGAGTTA | 0.46
ATAGGCACGTGTTTGA | -0.05
TGGGTCACGTGTCATT | 0.03
TAAGGCACGTGAATGT | 0.15
TATTGCACGTGTTTTA | -0.03
CGTGGCACGTGTACGT | -0.08
TAGAACACGTGTGGAA | 0.13
GATGTCACGTGGGTAT | 0.04
CAGGTCACGTGAATTT | 0.53
GGGTTCACGTGGAGAC | 0.34
TTTGACACGTGTGTAG | 0.05
GACGGCACGTGTGTTA | 0.07
GCGGTCACGTGGAAGT | 0.11

Sequence | relative binding free energy [kcal/mol]
GTTGTCACGTGGGTAT | 0.05
GGAAACACGTGGTGAT | 0.04
GCGTGCACGTGGATCG | 0.18
TGGGGCACGTGCTGGG | -0.19
ATATGCACGTGTGAAA | -0.03
ATGGGCACGTGTGTAA | -0.11
GGATTCACGTGGAGAT | 0.29
TAGGCCACGTGCTGTG | -0.2
AAAGGCACGTGGCGGA | -0.2
GTATACACGTGGTAGA | -0.03
TTGGACACGTGTATAT | 0.03
ATAGGCACGTGTTGAA | -0.12
TATGCCACGTGGATTG | 0.05
GTTAGCACGTGTGCTT | 0.07
GGTGTCACGTGGCATT | 0.15
CTTAGCACGTGTGCGG | -0.17
GAGTCCACGTGTTGGT | 0.05
GGAGGCACGTGTAAGT | 0.08
TTATACACGTGCGATG | 0.06
TGCGACACGTGGTGGC | 0.03
GCGATCACGTGTTTTA | 0.32
TTGGTCACGTGGTTCA | 0.07
GATTTCACGTGCTAGT | 0.38
CTCGGCACGTGGAGGG | -0.08
TAAGACACGTGGTATA | -0.1
AATGGCACGTGAAGTT | 0.07

Sequence | relative binding free energy [kcal/mol]
GGTAGCACGTGTAGTA | -0.06
GGTAGCACGTGGGAAT | 0.06
ATTATCACGTGGCGGG | 0.05
GTATGCACGTGGATAT | 0.08
AGGGGCACGTGGCGTT | -0.16
TTGGGCACGTGGAGGA | -0.14
GAGTACACGTGACGGT | 0.16
ATATACACGTGTAATG | 0.06
GTGGGCACGTGTTTGT | -0.07
TTATACACGTGTACTT | 0
CGTGTCACGTGTTGGC | 0.08
TCCGTCACGTGAGGTG | 0.23
ACTAGCACGTGGGTTG | -0.2
ATGGGCACGTGACTGG | 0.09
GAGGTCACGTGGTGCC | 0.19
AAGTCCACGTGAGTGG | 0.19
TGTCGCACGTGTGTGC | -0.05
AGTGTCACGTGGGTTA | -0.02
GCGTACACGTGGCGGT | 0.03
TATAACACGTGTTTAA | -0.09
GTGTACACGTGTGCGT | 0.05
TTCGACACGTGCGGGT | -0.03
GTTTGCACGTGTTTAC | 0.11
GCAGTCACGTGGTATT | 0.08
TGGATCACGTGCTTGT | 0.09
ATAGACACGTGGCTGG | 0.05

Sequence | relative binding free energy [kcal/mol]
TGAGACACGTGTGTGC | 0.08
TCTGACACGTGGGTTC | 0.03
CGTGTCACGTGCGGCT | 0.1
CTTAGCACGTGAATGG | 0.28
GAGGGCACGTGCAGTA | 0.05
CTGTACACGTGGACGG | 0.27
GTAAGCACGTGTTCGT | -0.08
CGTCTCACGTGGTTAT | 0.24
AAGAACACGTGGGTTG | -0.03
TGGCACACGTGATTTT | 0.25
GGGTTCACGTGAAGAA | 0.41
CATATCACGTGGGGCA | 0.14
GGTCGCACGTGGGGTG | -0.19
TTTAGCACGTGATATA | 0.15
GTCTTCACGTGGGCGT | 0.14
ATTGACACGTGTGTTC | 0.13
TTTGACACGTGCATTG | -0.12
CTAGTCACGTGATATG | 0.33
TTGCTCACGTGTTGGA | 0.24
CGAGGCACGTGCGGGG | -0.12
TCCGGCACGTGCGGGG | -0.16
TGTTACACGTGGTTTT | 0.17
GGGATCACGTGATAGG | 0.19
GAGTCCACGTGGGTAG | -0.07
TAATGCACGTGGGGAG | -0.01
TGTTCCACGTGTGTTC | 0.13

Sequence | relative binding free energy [kcal/mol]
ATTGGCACGTGTATAT | -0.08
GATGTCACGTGAAGGA | 0.47
ATTTTCACGTGTCACG | 0.29
AGGCGCACGTGATAGT | -0.01
TTTGGCACGTGGTTCG | -0.11
TTGAACACGTGCGGGA | 0.1
AGGGTCACGTGTCGGG | 0.18
GAGGACACGTGGGAGG | -0.03
GGAGGCACGTGGTATG | -0.12
GAGAGCACGTGGGGGT | -0.11
GGTATCACGTGGTAAA | 0.23
AGCGGCACGTGGTGAG | -0.06
CGGCTCACGTGGTTGT | 0.18
AGGGTCACGTGTGGTA | 0.12
GTCTGCACGTGATTTG | 0.14
TGGCGCACGTGGGTCA | -0.16
TTTGCCACGTGGTTTG | -0.1
GGGGACACGTGGTAAC | 0.12
TGATCCACGTGCGGCG | 0.18
ATGGGCACGTGTTGAT | -0.09
TAGGACACGTGAGTAG | 0.25
TTTAACACGTGCGGAG | 0.02
AAAGGCACGTGGGGAC | -0.2
TTGTTCACGTGCTTAA | 0.17
GTTGTCACGTGGCATG | -0.08
CCTTTCACGTGAGGGG | 0.42

Sequence | relative binding free energy [kcal/mol]
CGTGGCACGTGCGGTC | -0.16
TGTGGCACGTGTGTAT | -0.08
ATGGACACGTGATGAT | 0.28
GGGTTCACGTGGGCGT | 0.31
TGTACCACGTGGGGTG | -0.06
TGGGACACGTGTTTAA | -0.1
GAGGCCACGTGGTAAG | 0.02
GAGGTCACGTGGCCGG | 0.17
AACGGCACGTGGCTGG | 0
GTTCACACGTGGTCGG | 0.18
TTGACCACGTGGGAGG | -0.12
GTGGCCACGTGTAGTA | -0.06
TTGCACACGTGTGATT | 0.06
CGAGGCACGTGTAATG | 0.08
ACTTTCACGTGGTTAT | 0.15
GTGATCACGTGTTGGG | 0.13
GCGGACACGTGTTATG | 0.23
ATAGTCACGTGGCTTT | 0
TTTAGCACGTGATGAG | 0.14
GGGTGCACGTGGGGCA | -0.07
TCTAACACGTGGGTTT | -0.2
GAATGCACGTGGTTCG | -0.02
TGATGCACGTGATGAG | 0.13
GATGTCACGTGAATAG | 0.37
GGGTTCACGTGGAACG | 0.36
TAAAACACGTGGTAAT | 0.15

Sequence | relative binding free energy [kcal/mol]
TGTGTCACGTGTTTGC | 0.03
TTGTTCACGTGTAGGT | 0.17
TAATGCACGTGCATGT | -0.18
GTTAGCACGTGTTAAT | -0.07
GTGGTCACGTGTCGTA | 0.16
GGATACACGTGGTGTG | 0.07
AGTAGCACGTGTGTGA | -0.11
GTTAGCACGTGTAGTC | 0
AAGTACACGTGGGATT | 0.04
GGGTACACGTGAGTGA | 0.27
AGATACACGTGTTGAG | 0.19
ACGAACACGTGTGTGG | 0
GTGCGCACGTGTTTAA | -0.05
GTAGTCACGTGTGAAT | 0.13
TCGTACACGTGGATGT | 0.14
GGTGACACGTGGCTTG | 0.04
TGGAGCACGTGGTACT | -0.19
TGTAACACGTGCGGGT | -0.04
TGTAGCACGTGCAGTT | -0.04
GGCGGCACGTGAGGGC | 0.18
GTATGCACGTGATTTA | 0.06
GAGTACACGTGGGCTG | -0.01
GAACTCACGTGTGGTT | 0.26
GATTTCACGTGTGGAG | 0.24
TGGGTCACGTGAAAGA | 0.31
GTTTTCACGTGGGCGT | 0.21

Sequence | relative binding free energy [kcal/mol]
ATCGACACGTGGTTTT | 0.07
TACTGCACGTGGTATG | -0.16
ATAGTCACGTGGGGCC | -0.05
TGTTACACGTGGCTCT | 0.16
TTTTTCACGTGCTTTA | 0.17
TCGCGCACGTGTAGTG | -0.11
TTGGCCACGTGGGGTG | -0.26
AGATTCACGTGTGTTC | 0.35
AGGGTCACGTGTAGGA | 0.22
GGTAGCACGTGTGGCT | -0.02
CGGATCACGTGTTTTA | 0.13
ATATTCACGTGATGCG | 0.23
AAGTGCACGTGGTGCG | -0.2
CCGGACACGTGGGTGT | -0.15
AGTGGCACGTGCATGT | -0.33
TGCGTCACGTGTTGGA | 0.21
TGTTACACGTGTTGTG | 0.03
TCAATCACGTGTGAGG | 0.24
ATTAGCACGTGGGTGA | -0.19
CATGGCACGTGAGTGA | 0.06
TAGTGCACGTGAGAGA | 0.33
ATTAGCACGTGCGGTA | -0.14
